The values that follow come from a collection of fitness landscapes (doi:10.1038/s41467-024-54723-y).

Over roughly 18,000 sequences, “TetR repression strength (sort-seq, GFP reporter)” has its median near 0.23; the highest 2% begin near 0.68. Some of the results follow.

UniProt P04483, sequence (P04483 whole entry): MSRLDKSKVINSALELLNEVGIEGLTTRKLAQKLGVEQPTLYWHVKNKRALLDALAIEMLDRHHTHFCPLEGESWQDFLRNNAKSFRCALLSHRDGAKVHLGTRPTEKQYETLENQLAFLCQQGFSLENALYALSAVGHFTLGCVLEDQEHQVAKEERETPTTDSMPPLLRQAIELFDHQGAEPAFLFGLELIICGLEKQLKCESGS

The target of this assay is TetR (class B, Tn10) (UniProt P04483). Put plainly: TetR repression strength (sort-seq, GFP reporter) (relative to tetO2 = 1); higher = stronger repression. The settings on record: E. coli. The method in brief:
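Three independent transformations of E. coli SIG10-MAX were made with a low-copy plasmid library randomizing eight operator positions between a constitutive promoter and sfGFP, with constitutive TetR. Following 5 h at 37 °C in LB plus 50 µg/mL chloramphenicol, 10^6 cells went through FACS into 13 fluorescence bins, and each bin was sequenced by Illumina. Repression strength was defined as the top bin index plus one minus the read-weighted mean bin, divided by the unaltered operator's value. Averages included only members reaching ≥30 reads in all replicates with a CV ≤0.5.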
TCCCTTCTAGTATGAGAGA: the TetR repression strength was 0.406.

Turning to TCCCGGGAAGTAGGTGAGA, the TetR repression strength worked out at 0.209.

As for TCCCCAGAAGTGGGAGAGA, the TetR repression strength was 0.125.

TCCCTACAAGTCGCAGAGA: the TetR repression strength was 0.217.

Sequence TCCCCGAAAGTTTGTGAGA registered a TetR repression strength of 0.216.

As to TCCCTATTAGTGCTAGAGA, the TetR repression strength amounted to 0.466.

In turn, TCCCACTAAGTATCTGAGA registered a TetR repression strength of 0.274.

TCCCCATCAGTCCGCGAGA showed a TetR repression strength of 0.371.

Consider TCCCGCTGAGTAGCTGAGA, for which the TetR repression strength stood at 0.385.

Sequence TCCCAATAAGTTCTAGAGA gave a TetR repression strength of 0.306.

Sequence TCCCCAAGAGTAGACGAGA registered a TetR repression strength of 0.17.

TCCCTTTTAGTGGGTGAGA: the TetR repression strength stood at 0.26.

Consider TCCCTGGGAGTTGCGGAGA, for which the TetR repression strength stood at 0.467.

As to TCCCAAATAGTGGTAGAGA, the TetR repression strength was found to be 0.284.

TCCCAATTAGTCTAGGAGA registered a TetR repression strength of 0.281.

The sequence TCCCACGTAGTGATAGAGA showed a TetR repression strength of 0.354.

TCCCGTAAAGTGGCCGAGA registered a TetR repression strength of 0.101.

Sequence TCCCCCAGAGTGGATGAGA gave a TetR repression strength of 0.216.

TCCCGTATAGTTAGGGAGA yielded a TetR repression strength of 0.018.

The sequence TCCCTCTAAGTAAGCGAGA displayed a TetR repression strength of 0.17.

TCCCGTCCAGTGACCGAGA displayed a TetR repression strength of 0.21.

TCCCGGAAAGTCTGAGAGA: the TetR repression strength worked out at 0.238.

TCCCATAAAGTTTGCGAGA: the TetR repression strength turned out to be 0.25.

Consider TCCCGGGTAGTTGAGGAGA, for which the TetR repression strength is 0.213.

As for TCCCGGAAAGTAGCGGAGA, the TetR repression strength was determined as 0.175.

For the sequence TCCCGCGCAGTCGCAGAGA, the TetR repression strength stood at 0.226.

The sequence TCCCGAGTAGTGATGGAGA registered a TetR repression strength of 0.153.

The sequence TCCCGCCCAGTTATAGAGA gave a TetR repression strength of 0.351.

In turn, TCCCCTAGAGTGGATGAGA gave a TetR repression strength of 0.14.

Consider TCCCACGTAGTGAGGGAGA, for which the TetR repression strength turned out to be 0.241.

Take TCCCATTAAGTATTAGAGA: the TetR repression strength is 0.438.

For the sequence TCCCCTCCAGTGACAGAGA, the TetR repression strength amounted to 0.521.

TCCCAAGGAGTAATCGAGA yielded a TetR repression strength of 0.104.

In turn, TCCCTGTCAGTGTAAGAGA displayed a TetR repression strength of 0.426.

For TCCCCAGTAGTCAGTGAGA, the TetR repression strength turned out to be 0.247.

Consider TCCCGTCCAGTTCGTGAGA, for which the TetR repression strength was 0.096.

Take TCCCAAAGAGTATCAGAGA: the TetR repression strength was 0.111.

For TCCCTGCAAGTTGTTGAGA, the TetR repression strength was determined as 0.228.

Take TCCCGGATAGTGTAGGAGA: the TetR repression strength came to 0.373.

As for TCCCGGTCAGTCACCGAGA, the TetR repression strength is 0.669.

In the case of TCCCCTGGAGTGGTAGAGA, the TetR repression strength is 0.109.

In turn, TCCCGGCGAGTACCCGAGA showed a TetR repression strength of 0.218.

TCCCGGATAGTTCGAGAGA registered a TetR repression strength of 0.0488.

TCCCCGCGAGTGTCGGAGA yielded a TetR repression strength of 0.14.

For TCCCTATCAGTAAGTGAGA, the TetR repression strength was 0.545.

TCCCCGTAAGTAAGCGAGA registered a TetR repression strength of 0.25.

As to TCCCGCGGAGTAGTCGAGA, the TetR repression strength stood at 0.148.

In turn, TCCCGGCTAGTTGAGGAGA showed a TetR repression strength of 0.23.

TCCCTTTAAGTTCAGGAGA had a TetR repression strength of 0.211.

In turn, TCCCAACCAGTCATGGAGA yielded a TetR repression strength of 0.159.

TCCCAACAAGTTCTCGAGA displayed a TetR repression strength of 0.493.

TCCCTGATAGTTGATGAGA gave a TetR repression strength of 0.51.

TCCCAGGTAGTGCTGGAGA: the TetR repression strength stood at 0.275.

As for TCCCCCGTAGTATAAGAGA, the TetR repression strength turned out to be 0.384.

Regarding TCCCTGCCAGTCTGGGAGA, the TetR repression strength was found to be 0.111.

In the case of TCCCCACAAGTACAAGAGA, the TetR repression strength was found to be 0.465.

The sequence TCCCTATGAGTGTAAGAGA returned a TetR repression strength of 0.162.

TCCCACGTAGTCCGGGAGA showed a TetR repression strength of 0.0837.

TCCCGGTCAGTGTTAGAGA: the TetR repression strength was 0.609.

For the sequence TCCCCGCAAGTCGAAGAGA, the TetR repression strength is 0.294.

Regarding TCCCTACGAGTCGTGGAGA, the TetR repression strength is 0.334.

Turning to TCCCGGCGAGTGTAGGAGA, the TetR repression strength was 0.315.

TCCCCGAGAGTGGGCGAGA gave a TetR repression strength of 0.17.

Sequence TCCCCAGAAGTCCACGAGA registered a TetR repression strength of 0.256.

Consider TCCCCGTAAGTAAGGGAGA, for which the TetR repression strength was 0.22.

On to TCCCCAATAGTCCACGAGA, for which the TetR repression strength was found to be 0.316.

TCCCGTGAAGTGGGGGAGA: the TetR repression strength worked out at 0.273.

TCCCAAGCAGTCTGCGAGA returned a TetR repression strength of 0.335.

As for TCCCAACCAGTGAAGGAGA, the TetR repression strength was 0.

Regarding TCCCAGCGAGTCGGGGAGA, the TetR repression strength was found to be 0.099.

Consider TCCCTAGGAGTCATGGAGA, for which the TetR repression strength stood at 0.127.

In turn, TCCCACGCAGTGTGAGAGA yielded a TetR repression strength of 0.386.

On to TCCCGTTTAGTTCGCGAGA, for which the TetR repression strength stood at 0.208.

On to TCCCTGCGAGTTGTGGAGA, for which the TetR repression strength turned out to be 0.0709.

The sequence TCCCTGAGAGTACGAGAGA yielded a TetR repression strength of 0.231.

In turn, TCCCAGAAAGTCGGGGAGA showed a TetR repression strength of 0.0115.

As for TCCCTGCGAGTTGATGAGA, the TetR repression strength was found to be 0.158.

With TCCCGCGAAGTGGCTGAGA, the TetR repression strength stood at 0.178.

Take TCCCAACGAGTCCGTGAGA: the TetR repression strength is 0.183.

Consider TCCCCGTAAGTGAGAGAGA, for which the TetR repression strength came to 0.149.

In turn, TCCCCTTCAGTCCCAGAGA showed a TetR repression strength of 1.12.

As for TCCCCCCGAGTTCGCGAGA, the TetR repression strength is 0.207.

Sequence TCCCAGACAGTTCACGAGA yielded a TetR repression strength of 0.151.

Regarding TCCCGTTGAGTTGAGGAGA, the TetR repression strength was 0.119.

On to TCCCGCGGAGTAAGGGAGA, for which the TetR repression strength came to 0.252.

Sequence TCCCGTGTAGTGATGGAGA yielded a TetR repression strength of 0.222.

As for TCCCCCAGAGTGCGGGAGA, the TetR repression strength was found to be 0.16.

In the case of TCCCGCGGAGTCCGCGAGA, the TetR repression strength was 0.181.

The sequence TCCCCGCCAGTCCGGGAGA returned a TetR repression strength of 0.232.

In the case of TCCCGAGTAGTGGGTGAGA, the TetR repression strength is 0.256.

For the sequence TCCCTCATAGTGAGCGAGA, the TetR repression strength is 0.0621.

As for TCCCGACGAGTGTCGGAGA, the TetR repression strength was 0.249.

For TCCCTCTTAGTGGTAGAGA, the TetR repression strength was 0.28.

The sequence TCCCAACCAGTCATTGAGA had a TetR repression strength of 0.27.

Regarding TCCCGGTCAGTGCTAGAGA, the TetR repression strength was 0.638.

Consider TCCCTCCAAGTGGCGGAGA, for which the TetR repression strength came out at 0.113.

In turn, TCCCGTTTAGTTTTGGAGA had a TetR repression strength of 0.55.

Sequence TCCCCTACAGTAATTGAGA yielded a TetR repression strength of 0.19.

Consider TCCCTTAGAGTTTTCGAGA, for which the TetR repression strength came to 0.176.

Consider TCCCGCTTAGTGACTGAGA, for which the TetR repression strength came to 0.291.

TCCCCGCCAGTCCCTGAGA: the TetR repression strength came out at 0.433.

Take TCCCGTACAGTTATTGAGA: the TetR repression strength was determined as 0.398.
